From PMC8408167
These are yes or no findings as the source states them, for the method shown. Binding seen in cells or lysates may run through a third protein. Some binding calls cover weakened binding; strength is not graded here.

By UniProt entry, the sequences of proteins in these tests, tags left out. Where a name states a change or a piece, a line headed by the entry shows the natural chain unless it says otherwise.
UniProt P20152: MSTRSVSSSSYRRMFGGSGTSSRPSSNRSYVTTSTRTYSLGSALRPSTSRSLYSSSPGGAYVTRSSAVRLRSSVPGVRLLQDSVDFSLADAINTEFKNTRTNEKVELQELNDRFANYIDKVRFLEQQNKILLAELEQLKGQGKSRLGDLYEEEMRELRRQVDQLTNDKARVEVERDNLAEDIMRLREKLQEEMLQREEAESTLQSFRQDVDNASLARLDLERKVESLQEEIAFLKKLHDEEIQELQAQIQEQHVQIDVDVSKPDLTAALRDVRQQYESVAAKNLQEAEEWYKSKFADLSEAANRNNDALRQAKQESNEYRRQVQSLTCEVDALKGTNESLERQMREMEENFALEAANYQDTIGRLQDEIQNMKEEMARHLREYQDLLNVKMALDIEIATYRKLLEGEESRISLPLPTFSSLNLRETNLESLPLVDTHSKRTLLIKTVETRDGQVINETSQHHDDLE
UniProt P53350: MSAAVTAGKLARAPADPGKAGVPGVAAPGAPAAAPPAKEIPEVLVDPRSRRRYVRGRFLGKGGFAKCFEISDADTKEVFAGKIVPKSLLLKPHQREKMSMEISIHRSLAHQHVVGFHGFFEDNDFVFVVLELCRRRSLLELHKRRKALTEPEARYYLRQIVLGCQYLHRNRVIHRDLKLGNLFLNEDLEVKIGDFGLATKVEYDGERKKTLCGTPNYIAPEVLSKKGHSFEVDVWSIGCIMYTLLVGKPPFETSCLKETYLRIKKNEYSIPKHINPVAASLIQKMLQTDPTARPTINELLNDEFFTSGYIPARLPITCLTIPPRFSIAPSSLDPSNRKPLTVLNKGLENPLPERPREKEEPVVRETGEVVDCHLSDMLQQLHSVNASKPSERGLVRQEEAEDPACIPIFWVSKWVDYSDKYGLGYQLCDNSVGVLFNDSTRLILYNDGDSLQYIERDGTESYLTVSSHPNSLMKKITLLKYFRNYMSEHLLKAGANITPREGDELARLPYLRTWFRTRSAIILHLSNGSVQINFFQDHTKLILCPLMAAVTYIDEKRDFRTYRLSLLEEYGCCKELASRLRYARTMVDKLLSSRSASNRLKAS
UniProt Q15796: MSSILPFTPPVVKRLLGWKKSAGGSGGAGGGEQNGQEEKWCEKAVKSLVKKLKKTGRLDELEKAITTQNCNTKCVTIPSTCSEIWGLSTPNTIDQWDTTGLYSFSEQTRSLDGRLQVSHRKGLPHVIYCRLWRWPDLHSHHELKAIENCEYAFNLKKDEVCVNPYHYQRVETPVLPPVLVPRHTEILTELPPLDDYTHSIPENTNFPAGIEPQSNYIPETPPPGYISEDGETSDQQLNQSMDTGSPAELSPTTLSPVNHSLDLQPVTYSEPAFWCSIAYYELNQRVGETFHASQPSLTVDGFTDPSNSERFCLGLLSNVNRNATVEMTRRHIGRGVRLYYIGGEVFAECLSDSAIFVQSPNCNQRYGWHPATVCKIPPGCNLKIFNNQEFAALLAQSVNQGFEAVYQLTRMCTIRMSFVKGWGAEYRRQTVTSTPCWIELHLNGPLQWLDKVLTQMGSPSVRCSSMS
UniProt P08670: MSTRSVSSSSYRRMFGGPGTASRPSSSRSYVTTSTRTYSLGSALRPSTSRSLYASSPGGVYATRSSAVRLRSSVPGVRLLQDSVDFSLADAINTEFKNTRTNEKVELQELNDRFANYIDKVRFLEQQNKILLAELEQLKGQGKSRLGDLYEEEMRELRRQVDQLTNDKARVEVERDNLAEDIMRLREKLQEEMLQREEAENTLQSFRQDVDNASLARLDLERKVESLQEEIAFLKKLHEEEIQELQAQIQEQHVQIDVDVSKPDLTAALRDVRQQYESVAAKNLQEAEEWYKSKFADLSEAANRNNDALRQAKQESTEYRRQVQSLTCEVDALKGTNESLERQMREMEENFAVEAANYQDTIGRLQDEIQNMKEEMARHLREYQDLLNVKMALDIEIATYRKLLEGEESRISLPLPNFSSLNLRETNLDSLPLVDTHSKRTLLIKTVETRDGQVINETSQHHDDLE

Experiments:
[1] = biological target: RFP-tagged mouse vimentin S339E (phosphomimetic) (mouse) (UniProt P20152); assay: co-IP; whole-cell lysates of NCI-H460 cells expressing vimentin (Supplementary Fig. 7a)
[2] = biological target: RFP-tagged mouse vimentin S339E (phosphomimetic) (mouse) (UniProt P20152); assay: co-IP; nuclear lysates of NCI-H460 cells; anti-vimentin or normal IgG for the precipitation; blots with anti-RFP, anti-p-Smad2, anti-Smad2/3, anti-histone H1
[3] = biological target: PLK1 (endogenous) (human (endogenous in A549 and NCI-H460)) (UniProt P53350); assay: co-IP; lysates of A549 and NCI-H460 cells, with or without 2.5 ng/ml TGF-β for 48 hours; anti-PLK1 or normal IgG for 16 h at 4 °C, protein A/G agarose, four washes with lysis buffer; blot with anti-vimentin
[4] = biological target: RFP-tagged mouse vimentin S339A (non-phosphomimetic) (mouse) (UniProt P20152); assay: co-IP; nuclear lysates of NCI-H460 cells; anti-vimentin or normal IgG for the precipitation; blots with anti-RFP, anti-p-Smad2, anti-Smad2/3, anti-histone H1

Substance | binding [1] | binding [2] | binding [3] | binding [4]
Smad2/3 (endogenous) (from UniProt Q15796 1-467; P84022 1-425) (complex) | binds | binds |  | 
vimentin (endogenous) (from UniProt P08670 1-466) |  |  | binds | 
p-Smad2 (endogenous Smad2 phosphorylated at S465/S467) (from UniProt Q15796 1-467) | binds | binds |  | no binding
